# B1: MS2 coat protein; the commonest letter at each place (parent)
# chain: MASNFTQFVLVDNGGTGDVTVAPSNFANGVAEWISSNSRSQAYKVTCSVRQSSAQNRKYTIKVEVPKVATQTVGGVELPVAAWRSYLNMELTIPIFATNSDCELIVKAMQGLLKDGNPIPSAIAANSGIY
# Variants of: B1
# Assay: apparent fitness score (VLP assembly selection enrichment vs plasmid library) (log10 ratio); higher = better expression / assembly into well-formed VLPs
# 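Further: counts from Illumina MiSeq reads, cDNA of packaged RNA versus plasmid DNA taken before selection, each replicate independent from library construction onward, expression induced with 0.1% arabinose.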
row,Variant,apparent fitness score (log10)
1,MASNFTQFVLVDNGGTGDVTVAPSNFANGVAEWISSNSRSQAYKVTCSVRMSSAQNRKYTIKVEVPKVATQTVGGVELPVAAWRSYLNMELTIPIFATNSDCELIVKAMQGLLKDGNPIPSAIAANSGIY,-0.165
2,MASNFTQFVLVDNGGTGDVTVAPSNFANGVAEWISSNSRSQAYKVTCSVRNSSAQNRKYTIKVEVPKVATQTVGGVELPVAAWRSYLNMELTIPIFATNSDCELIVKAMQGLLKDGNPIPSAIAANSGIY,0.675
3,MASNFTQFVLVDNGGTGDVTVAPSNFANGVAEWISSNSRSQAYKVTCSVRPSSAQNRKYTIKVEVPKVATQTVGGVELPVAAWRSYLNMELTIPIFATNSDCELIVKAMQGLLKDGNPIPSAIAANSGIY,0.803
4,MASNFTQFVLVDNGGTGDVTVAPSNFANGVAEWISSNSRSQAYKVTCSVRRSSAQNRKYTIKVEVPKVATQTVGGVELPVAAWRSYLNMELTIPIFATNSDCELIVKAMQGLLKDGNPIPSAIAANSGIY,0.967
5,MASNFTQFVLVDNGGTGDVTVAPSNFANGVAEWISSNSRSQAYKVTCSVRSSSAQNRKYTIKVEVPKVATQTVGGVELPVAAWRSYLNMELTIPIFATNSDCELIVKAMQGLLKDGNPIPSAIAANSGIY,0.758
6,MASNFTQFVLVDNGGTGDVTVAPSNFANGVAEWISSNSRSQAYKVTCSVRTSSAQNRKYTIKVEVPKVATQTVGGVELPVAAWRSYLNMELTIPIFATNSDCELIVKAMQGLLKDGNPIPSAIAANSGIY,-0.228
7,MASNFTQFVLVDNGGTGDVTVAPSNFANGVAEWISSNSRSQAYKVTCSVRVSSAQNRKYTIKVEVPKVATQTVGGVELPVAAWRSYLNMELTIPIFATNSDCELIVKAMQGLLKDGNPIPSAIAANSGIY,-1.57
8,MASNFTQFVLVDNGGTGDVTVAPSNFANGVAEWISSNSRSQAYKVTCSVRWSSAQNRKYTIKVEVPKVATQTVGGVELPVAAWRSYLNMELTIPIFATNSDCELIVKAMQGLLKDGNPIPSAIAANSGIY,< -4
9,MASNFTQFVLVDNGGTGDVTVAPSNFANGVAEWISSNSRSQAYKVTCSVRYSSAQNRKYTIKVEVPKVATQTVGGVELPVAAWRSYLNMELTIPIFATNSDCELIVKAMQGLLKDGNPIPSAIAANSGIY,< -4
10,MASNFTQFVLVDNGGTGDVTVAPSNFANGVAEWISSNSRSQAYKVTCSVRQASAQNRKYTIKVEVPKVATQTVGGVELPVAAWRSYLNMELTIPIFATNSDCELIVKAMQGLLKDGNPIPSAIAANSGIY,0.714
11,MASNFTQFVLVDNGGTGDVTVAPSNFANGVAEWISSNSRSQAYKVTCSVRQCSAQNRKYTIKVEVPKVATQTVGGVELPVAAWRSYLNMELTIPIFATNSDCELIVKAMQGLLKDGNPIPSAIAANSGIY,0.751
12,MASNFTQFVLVDNGGTGDVTVAPSNFANGVAEWISSNSRSQAYKVTCSVRQDSAQNRKYTIKVEVPKVATQTVGGVELPVAAWRSYLNMELTIPIFATNSDCELIVKAMQGLLKDGNPIPSAIAANSGIY,< -4
13,MASNFTQFVLVDNGGTGDVTVAPSNFANGVAEWISSNSRSQAYKVTCSVRQESAQNRKYTIKVEVPKVATQTVGGVELPVAAWRSYLNMELTIPIFATNSDCELIVKAMQGLLKDGNPIPSAIAANSGIY,-0.249
14,MASNFTQFVLVDNGGTGDVTVAPSNFANGVAEWISSNSRSQAYKVTCSVRQFSAQNRKYTIKVEVPKVATQTVGGVELPVAAWRSYLNMELTIPIFATNSDCELIVKAMQGLLKDGNPIPSAIAANSGIY,-0.185
15,MASNFTQFVLVDNGGTGDVTVAPSNFANGVAEWISSNSRSQAYKVTCSVRQGSAQNRKYTIKVEVPKVATQTVGGVELPVAAWRSYLNMELTIPIFATNSDCELIVKAMQGLLKDGNPIPSAIAANSGIY,-0.932
16,MASNFTQFVLVDNGGTGDVTVAPSNFANGVAEWISSNSRSQAYKVTCSVRQHSAQNRKYTIKVEVPKVATQTVGGVELPVAAWRSYLNMELTIPIFATNSDCELIVKAMQGLLKDGNPIPSAIAANSGIY,-0.341
17,MASNFTQFVLVDNGGTGDVTVAPSNFANGVAEWISSNSRSQAYKVTCSVRQISAQNRKYTIKVEVPKVATQTVGGVELPVAAWRSYLNMELTIPIFATNSDCELIVKAMQGLLKDGNPIPSAIAANSGIY,0.3
18,MASNFTQFVLVDNGGTGDVTVAPSNFANGVAEWISSNSRSQAYKVTCSVRQKSAQNRKYTIKVEVPKVATQTVGGVELPVAAWRSYLNMELTIPIFATNSDCELIVKAMQGLLKDGNPIPSAIAANSGIY,-1.59
19,MASNFTQFVLVDNGGTGDVTVAPSNFANGVAEWISSNSRSQAYKVTCSVRQLSAQNRKYTIKVEVPKVATQTVGGVELPVAAWRSYLNMELTIPIFATNSDCELIVKAMQGLLKDGNPIPSAIAANSGIY,-1.3
20,MASNFTQFVLVDNGGTGDVTVAPSNFANGVAEWISSNSRSQAYKVTCSVRQMSAQNRKYTIKVEVPKVATQTVGGVELPVAAWRSYLNMELTIPIFATNSDCELIVKAMQGLLKDGNPIPSAIAANSGIY,0.138
21,MASNFTQFVLVDNGGTGDVTVAPSNFANGVAEWISSNSRSQAYKVTCSVRQNSAQNRKYTIKVEVPKVATQTVGGVELPVAAWRSYLNMELTIPIFATNSDCELIVKAMQGLLKDGNPIPSAIAANSGIY,< -4
22,MASNFTQFVLVDNGGTGDVTVAPSNFANGVAEWISSNSRSQAYKVTCSVRQPSAQNRKYTIKVEVPKVATQTVGGVELPVAAWRSYLNMELTIPIFATNSDCELIVKAMQGLLKDGNPIPSAIAANSGIY,0.547

row,Variant,apparent fitness score (log10)
1,MASNFTQFVLVDNGGTGDVTVAPSNFANGVAEWISSNSRSQAYKVTCSVRQQSAQNRKYTIKVEVPKVATQTVGGVELPVAAWRSYLNMELTIPIFATNSDCELIVKAMQGLLKDGNPIPSAIAANSGIY,-0.401
2,MASNFTQFVLVDNGGTGDVTVAPSNFANGVAEWISSNSRSQAYKVTCSVRQRSAQNRKYTIKVEVPKVATQTVGGVELPVAAWRSYLNMELTIPIFATNSDCELIVKAMQGLLKDGNPIPSAIAANSGIY,-1.45
3,MASNFTQFVLVDNGGTGDVTVAPSNFANGVAEWISSNSRSQAYKVTCSVRQTSAQNRKYTIKVEVPKVATQTVGGVELPVAAWRSYLNMELTIPIFATNSDCELIVKAMQGLLKDGNPIPSAIAANSGIY,-0.35
4,MASNFTQFVLVDNGGTGDVTVAPSNFANGVAEWISSNSRSQAYKVTCSVRQVSAQNRKYTIKVEVPKVATQTVGGVELPVAAWRSYLNMELTIPIFATNSDCELIVKAMQGLLKDGNPIPSAIAANSGIY,0.476
5,MASNFTQFVLVDNGGTGDVTVAPSNFANGVAEWISSNSRSQAYKVTCSVRQWSAQNRKYTIKVEVPKVATQTVGGVELPVAAWRSYLNMELTIPIFATNSDCELIVKAMQGLLKDGNPIPSAIAANSGIY,-0.478
6,MASNFTQFVLVDNGGTGDVTVAPSNFANGVAEWISSNSRSQAYKVTCSVRQYSAQNRKYTIKVEVPKVATQTVGGVELPVAAWRSYLNMELTIPIFATNSDCELIVKAMQGLLKDGNPIPSAIAANSGIY,-0.382
7,MASNFTQFVLVDNGGTGDVTVAPSNFANGVAEWISSNSRSQAYKVTCSVRQSDAQNRKYTIKVEVPKVATQTVGGVELPVAAWRSYLNMELTIPIFATNSDCELIVKAMQGLLKDGNPIPSAIAANSGIY,< -4
8,MASNFTQFVLVDNGGTGDVTVAPSNFANGVAEWISSNSRSQAYKVTCSVRQSFAQNRKYTIKVEVPKVATQTVGGVELPVAAWRSYLNMELTIPIFATNSDCELIVKAMQGLLKDGNPIPSAIAANSGIY,0.157
9,MASNFTQFVLVDNGGTGDVTVAPSNFANGVAEWISSNSRSQAYKVTCSVRQSHAQNRKYTIKVEVPKVATQTVGGVELPVAAWRSYLNMELTIPIFATNSDCELIVKAMQGLLKDGNPIPSAIAANSGIY,< -4
10,MASNFTQFVLVDNGGTGDVTVAPSNFANGVAEWISSNSRSQAYKVTCSVRQSIAQNRKYTIKVEVPKVATQTVGGVELPVAAWRSYLNMELTIPIFATNSDCELIVKAMQGLLKDGNPIPSAIAANSGIY,< -4
11,MASNFTQFVLVDNGGTGDVTVAPSNFANGVAEWISSNSRSQAYKVTCSVRQSKAQNRKYTIKVEVPKVATQTVGGVELPVAAWRSYLNMELTIPIFATNSDCELIVKAMQGLLKDGNPIPSAIAANSGIY,< -4
12,MASNFTQFVLVDNGGTGDVTVAPSNFANGVAEWISSNSRSQAYKVTCSVRQSLAQNRKYTIKVEVPKVATQTVGGVELPVAAWRSYLNMELTIPIFATNSDCELIVKAMQGLLKDGNPIPSAIAANSGIY,< -4
13,MASNFTQFVLVDNGGTGDVTVAPSNFANGVAEWISSNSRSQAYKVTCSVRQSMAQNRKYTIKVEVPKVATQTVGGVELPVAAWRSYLNMELTIPIFATNSDCELIVKAMQGLLKDGNPIPSAIAANSGIY,< -4
14,MASNFTQFVLVDNGGTGDVTVAPSNFANGVAEWISSNSRSQAYKVTCSVRQSPAQNRKYTIKVEVPKVATQTVGGVELPVAAWRSYLNMELTIPIFATNSDCELIVKAMQGLLKDGNPIPSAIAANSGIY,0.456
15,MASNFTQFVLVDNGGTGDVTVAPSNFANGVAEWISSNSRSQAYKVTCSVRQSRAQNRKYTIKVEVPKVATQTVGGVELPVAAWRSYLNMELTIPIFATNSDCELIVKAMQGLLKDGNPIPSAIAANSGIY,-1.06
16,MASNFTQFVLVDNGGTGDVTVAPSNFANGVAEWISSNSRSQAYKVTCSVRQSTAQNRKYTIKVEVPKVATQTVGGVELPVAAWRSYLNMELTIPIFATNSDCELIVKAMQGLLKDGNPIPSAIAANSGIY,0.34
17,MASNFTQFVLVDNGGTGDVTVAPSNFANGVAEWISSNSRSQAYKVTCSVRQSVAQNRKYTIKVEVPKVATQTVGGVELPVAAWRSYLNMELTIPIFATNSDCELIVKAMQGLLKDGNPIPSAIAANSGIY,< -4
18,MASNFTQFVLVDNGGTGDVTVAPSNFANGVAEWISSNSRSQAYKVTCSVRQSYAQNRKYTIKVEVPKVATQTVGGVELPVAAWRSYLNMELTIPIFATNSDCELIVKAMQGLLKDGNPIPSAIAANSGIY,< -4
19,MASNFTQFVLVDNGGTGDVTVAPSNFANGVAEWISSNSRSQAYKVTCSVRQSSCQNRKYTIKVEVPKVATQTVGGVELPVAAWRSYLNMELTIPIFATNSDCELIVKAMQGLLKDGNPIPSAIAANSGIY,< -4
20,MASNFTQFVLVDNGGTGDVTVAPSNFANGVAEWISSNSRSQAYKVTCSVRQSSEQNRKYTIKVEVPKVATQTVGGVELPVAAWRSYLNMELTIPIFATNSDCELIVKAMQGLLKDGNPIPSAIAANSGIY,-0.831
21,MASNFTQFVLVDNGGTGDVTVAPSNFANGVAEWISSNSRSQAYKVTCSVRQSSFQNRKYTIKVEVPKVATQTVGGVELPVAAWRSYLNMELTIPIFATNSDCELIVKAMQGLLKDGNPIPSAIAANSGIY,-1.39
22,MASNFTQFVLVDNGGTGDVTVAPSNFANGVAEWISSNSRSQAYKVTCSVRQSSGQNRKYTIKVEVPKVATQTVGGVELPVAAWRSYLNMELTIPIFATNSDCELIVKAMQGLLKDGNPIPSAIAANSGIY,-1.15
